Measured values published in the supplement of paper PMC11417369.
± gives the standard deviation of the averaged measurements. The list shows a part of the results.

Tested on: PfAP2-EXP AP2 domain (GST-tagged)
Experiment: gcPBM binding intensity (ln(normalized median fluorescence intensity)); higher = stronger DNA binding
Outline: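 Binding intensity values are the highest Masliner-normalised natural-log median intensity among replicate spots of either probe orientation. The binding step lasted 1 h in 1× PBS with 1% milk, 0.2 mg/ml BSA, 0.5% salmon testes DNA and 0.03% Triton X-100, using GST-tagged P. falciparum DNA-binding domains expressed in E. coli on an Agilent 4 × 180k array of primer-extended double-stranded 36-bp intergenic genomic probes plus negative controls. Alexa488 anti-GST antibody and a 488 nm scan detected bound protein.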

Point of comparison: “TTTTGTGATCTTACCACCTTTCATAATATTAATAAA [GTGCAC_negctrl_site360]”, “gcPBM binding intensity (ln)” value 8.61 ± 0.31. Against it:
- ACATATATATATATATATATATATATATATTCTTAA [CACACA_negctrl_site930] — higher, 9.01 ± 0.071
- CACACGCACGAACACACACACACACGCGCACATATA [CACACA_site6304] — within error, 8.86 ± 0.42
- ATTTTAATTTTTTAAGTATTATATGAATATTTATTA [TGCATGCA_negctrl_site142] — within error, 8.29 ± 0.49
- TTCATTCTATAAAACACACAAATATTTTTGTATCCC [CACACA_site6458] — within error, 8.57 ± 0.48
- ATAGAACAATTCAGAAGTACATAAAAAGAAAAATTT [XGTACX_site3015] — within error, 8.74 ± 0.48
- TTGGATGATTAAGGGGGACACACGTTTATATATTTA [CACACA_site338] — higher, 9.53 ± 0.46
- ATATATTTTAATGATACACACAAGAAATAAAATTAC [CACACA_site5671] — within error, 8.71 ± 0.42
- TTTCACAAATGATATAGTACTTTTTATTATTAACAT [XGTACX_site7976] — within error, 8.44 ± 0.4
- ACTTTTTTAATGTTACGTACACATAAATAATAATTA [XGTACX_site8092] — within error, 8.785 ± 0.007
- TAAAAAAAAAAAAAAGTACACACTTATAAAATATTA [CACACA_site872] — within error, 8.37 ± 0.5
- ATATATTTTTTGAATACACACATATTATATGTAATA [CACACA_site1256] — within error, 8.46 ± 0.53
- GTTACACCAACAAACACACACACACCGACACCCAAA [CACACA_site5361] — within error, 8.54 ± 0.44
- AAATGTAAAATTTTATGTACATATATTTATATAATA [XGTACX_site3737] — within error, 8.55 ± 0.19
- ACAAATGAGATTATATGTACACATAACAAATTTACA [XGTACX_site3496] — within error, 8.6 ± 0.42
- TTTATTTATTTAATTACACACGAACATATAACCATT [CACACA_site7952] — within error, 8.6 ± 0.41
- ATGTTTTATAAAAGGCGTACACATATATTTAAGTAA [XGTACX_site6231] — within error, 8.81 ± 0.3
- AAATTGGGGCTTGTTACACACTTAGTGTGAGTTCTA [CACACA_site6417] — within error, 8.7 ± 0.49
- ATTTATAATATGTATACACACACATATATAAATATA [CACACA_site8729] — within error, 8.44 ± 0.33
- TATAATCATAAATACACACACATATATATATATATA [CACACA_site5224] — higher, 10.2 ± 0.42
- TTCTCATCCTTACATACACACACATATATATATATA [CACACA_site7914] — higher, 10.3 ± 0.11
- GTTCAATTATTTTTATGTACATATATTTTTTTCTTT [XGTACX_site2505] — within error, 9.06 ± 0.31
- GTTATTAAAAACGGGTGTACACATATATAAATATAT [XGTACX_site1234] — within error, 8.92 ± 0.47
- TATTTATTATAAAAATTGTATAAAATAATAATGCTC [GTGCAC_negctrl_site456] — within error, 8.38 ± 0.36
- TTAACCTTTATATAATACGTATCATCCTCATATATA [CACACA_negctrl_site86] — within error, 8.95 ± 0.61
- TGTATATATTTGTGCACACCAAAGTTTGATTTTATT [CACACA_site1860] — higher, 9.48 ± 0.12
- ATATAAAATCAACAAAAAAAAAAAATATATATATAT [XGTACX_negctrl_site251] — higher, 9.96 ± 0.26
- TATTATAACTAAAAAAATCACATAAAATACTTTATT [CACACA_negctrl_site2] — within error, 7.92 ± 0.38
- TTATATTTTTTAATTACACACAATTCTTATAAATAT [CACACA_site7870] — within error, 8.29 ± 0.49
- AATATTTGCCTATGTTGTACTGACATTTTTTTAAGT [XGTACX_site6836] — within error, 8.71 ± 0.33
- TATATACACATGCGCACACACAAGTGGGAAATTTGG [CACACA_site6930] — within error, 8.92 ± 0.4
- TTAAGGATCCACGATACACACATATCATTCAACAAA [CACACA_site1924] — within error, 8.44 ± 0.54
- TAATAATCCACAAGCACACACACACCCATATATATA [CACACA_site1267] — within error, 8.79 ± 0.28
- ATATATAATATATGATGTACTTAATAATTTTTTTTT [XGTACX_site5715] — within error, 8.17 ± 0.26
- CATTTTATTTTAATATGTACTTAAAGAAAAAAAATT [XGTACX_site7670] — within error, 8.33 ± 0.41
- TTTTGACATTAATTACTATAGTGTTCTTATAAAATT [TGCATGCA_negctrl_site589] — within error, 8.48 ± 0.47
- AATACATAAAAATAAAAATAAAATATAACTAATATG [CACACA_negctrl_site186] — within error, 8.54 ± 0.55
- AATCGATAAAATGTTGTGCACATATTTTTATATTTA [GTGCAC_site9651] — within error, 8.75 ± 0.13
- AAAACTATAATGAATAGTACATAAAAATGGATATAT [XGTACX_site6056] — within error, 8.76 ± 0.35
- TTATACATATATTTAACACACATTTTATAAAGTGCC [CACACA_site1314] — within error, 8.46 ± 0.42
- TATCTTATTTTATCTCGTACATAAAATTAAAAAATT [XGTACX_site3636] — within error, 8.43 ± 0.31
- TTAAATTACTAATGTGCACACATACTAACGTTTAAA [CACACA_site3573] — within error, 8.79 ± 0.12
- TTTTATTTATTATTTACACACACGTAGGTGTCCATA [CACACA_site430] — within error, 8.77 ± 0.33
- AATATGTATCCATACACACATACATTTTATTTGCAA [CACACA_site874] — within error, 8.65 ± 0.45
- TTGTGTTTTATTATTTTATTATTACTATTATAATGT [GTGCAC_negctrl_site484] — within error, 8.82 ± 0.42
- TAAAAATGGGTATGTACACACTTTATTTTTAATACA [CACACA_site5404] — within error, 8.36 ± 0.099
- ATAAAACATAAATACATACACACATAATATATATTA [CACACA_site110] — the same, 8.61 ± 0.45
- AAGGAAGATATATACACACATACAAATATATATATA [CACACA_site2181] — higher, 9.69 ± 0.34
- ACATATTTAAAAACATGTACAAATATATTTATAATT [XGTACX_site661] — within error, 8.38 ± 0.18
- TGTAATGTTTACAACACACAAATTAGAAATACAAAA [CACACA_site6924] — within error, 8.53 ± 0.44
- AAGAAAAAATAAAGCACACAAATATTTTAAAAACAC [CACACA_site3325] — within error, 9.06 ± 0.33
- TTATTTATAATGTTGTGTACATATATGAATATACCA [XGTACX_site3111] — within error, 8.38 ± 0.33
- TATTTTACGTATTGTTGTACTTGAAACAAATATACA [XGTACX_site8778] — within error, 8.57 ± 0.34
- GATATATATACATGTGTGCACCATGCAACTTGTTTT — higher, 9.19 ± 0.014
- TTTTTTCAATTGGAAATTATTTTACAATGAAGGGTA [XGTACX_negctrl_site469] — within error, 8.44 ± 0.48
- TATAAACATAAATATACACACAAACATATATGTATT [CACACA_site8324] — within error, 8.51 ± 0.42
